{
  "source": "a collection of fitness landscapes (doi:10.1016/j.celrep.2020.107928)",
  "parents": {"B1": {"name": "Caulobacter ParB omega fusion; a variant is named by its letters at X, in order, B8GW30 (parent)", "chain": "MESVVVGEPGMSEGRRGLGRGLSALLGEVDAAPAQAPGEQLGGSREAPIEILQRNPDQPRRTFREEDLEDLSNSIREKGVLQPILVRPSPDTAGEYQIVAGERAWRAAQRAGLKTVPIMVRELDDLAVLEIGIIENVQRADLNVLEEALSYKVLMEKFERTQENIAQTIGKSXSHVANXMRLLXLPDEVQSYLVSGELTAXHARAIAAAADPVALAKQIIEGGLSVRETEALARKAPNLSAGKSKGGRPPRVKDTDTQALESDLSSVLGLDVSIDHRGSTGTLTITYATLEQLDDLCNRLTRGI"}},
  "note": "Whole data set: some 81,000 sequences, median “one-hybrid fitness for binding parS DNA” near -0.17, cut for the highest 2% near 0.51. This is one part of the list.",
  "data": [
    {"variants_of": "B1", "assay": "one-hybrid fitness for binding parS DNA (scaled: cognate 1, non-cognate 0); higher = stronger binding", "settings": "with parS DNA site", "procedure,_shortened": "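Bacterial one-hybrid selection in E. coli USO rpoZ- hisB- pyrF- with a HIS3 reporter carrying the site 19 bp from the promoter, screening Caulobacter ParB libraries with four specificity codons randomised (NNS). Cells grew 48 hours at 37°C on M9-minus-histidine plus 0.1 mM IPTG and 5 mM 3-AT. Plasmids before and after selection were Illumina-sequenced, three replicate libraries pooled, and variants under 10 reads dropped. Fitness is the log change in variant-to-wild-type read ratio, rescaled to cognate 1, non-cognate 0.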", "values": [
      {"variant": "MVCD", "one-hybrid fitness for binding parS DNA": "≤ 0.2"},
      {"variant": "DLQE", "one-hybrid fitness for binding parS DNA": "≤ 0.2"},
      {"variant": "RSMC", "one-hybrid fitness for binding parS DNA": 0.928},
      {"variant": "TTRL", "one-hybrid fitness for binding parS DNA": "≤ 0.2"},
      {"variant": "INVS", "one-hybrid fitness for binding parS DNA": "≤ 0.2"},
      {"variant": "AGWG", "one-hybrid fitness for binding parS DNA": "≤ 0.2"},
      {"variant": "QKMQ", "one-hybrid fitness for binding parS DNA": "≤ 0.2"},
      {"variant": "KSER", "one-hybrid fitness for binding parS DNA": "≤ 0.2"},
      {"variant": "DVRG", "one-hybrid fitness for binding parS DNA": "≤ 0.2"},
      {"variant": "AGCR", "one-hybrid fitness for binding parS DNA": "≤ 0.2"},
      {"variant": "MDSG", "one-hybrid fitness for binding parS DNA": "≤ 0.2"},
      {"variant": "PMTA", "one-hybrid fitness for binding parS DNA": "≤ 0.2"},
      {"variant": "AYTN", "one-hybrid fitness for binding parS DNA": "≤ 0.2"},
      {"variant": "QKGC", "one-hybrid fitness for binding parS DNA": "≤ 0.2"},
      {"variant": "ANAQ", "one-hybrid fitness for binding parS DNA": "≤ 0.2"},
      {"variant": "LQNH", "one-hybrid fitness for binding parS DNA": "≤ 0.2"},
      {"variant": "PFWR", "one-hybrid fitness for binding parS DNA": "≤ 0.2"},
      {"variant": "TVTI", "one-hybrid fitness for binding parS DNA": "≤ 0.2"},
      {"variant": "RMPV", "one-hybrid fitness for binding parS DNA": "≤ 0.2"},
      {"variant": "QINY", "one-hybrid fitness for binding parS DNA": "≤ 0.2"},
      {"variant": "PAHT", "one-hybrid fitness for binding parS DNA": "≤ 0.2"},
      {"variant": "GTCR", "one-hybrid fitness for binding parS DNA": "≤ 0.2"},
      {"variant": "AHHE", "one-hybrid fitness for binding parS DNA": "≤ 0.2"},
      {"variant": "PCTW", "one-hybrid fitness for binding parS DNA": "≤ 0.2"},
      {"variant": "WPSR", "one-hybrid fitness for binding parS DNA": "≤ 0.2"},
      {"variant": "QAKP", "one-hybrid fitness for binding parS DNA": "≤ 0.2"},
      {"variant": "PSCK", "one-hybrid fitness for binding parS DNA": "≤ 0.2"},
      {"variant": "LQAY", "one-hybrid fitness for binding parS DNA": "≤ 0.2"},
      {"variant": "PNFT", "one-hybrid fitness for binding parS DNA": "≤ 0.2"},
      {"variant": "KLVR", "one-hybrid fitness for binding parS DNA": "≤ 0.2"},
      {"variant": "CYGR", "one-hybrid fitness for binding parS DNA": "≤ 0.2"},
      {"variant": "EMLQ", "one-hybrid fitness for binding parS DNA": "≤ 0.2"},
      {"variant": "KCHV", "one-hybrid fitness for binding parS DNA": "≤ 0.2"},
      {"variant": "ACYM", "one-hybrid fitness for binding parS DNA": "≤ 0.2"},
      {"variant": "WDLS", "one-hybrid fitness for binding parS DNA": "≤ 0.2"},
      {"variant": "RCYN", "one-hybrid fitness for binding parS DNA": 0.545},
      {"variant": "QLET", "one-hybrid fitness for binding parS DNA": "≤ 0.2"},
      {"variant": "GLLI", "one-hybrid fitness for binding parS DNA": "≤ 0.2"},
      {"variant": "EHFR", "one-hybrid fitness for binding parS DNA": "≤ 0.2"},
      {"variant": "AQNR", "one-hybrid fitness for binding parS DNA": "≤ 0.2"},
      {"variant": "MRNG", "one-hybrid fitness for binding parS DNA": "≤ 0.2"},
      {"variant": "HICG", "one-hybrid fitness for binding parS DNA": "≤ 0.2"},
      {"variant": "IVHG", "one-hybrid fitness for binding parS DNA": "≤ 0.2"},
      {"variant": "CCAT", "one-hybrid fitness for binding parS DNA": "≤ 0.2"},
      {"variant": "DDHR", "one-hybrid fitness for binding parS DNA": "≤ 0.2"},
      {"variant": "EELT", "one-hybrid fitness for binding parS DNA": "≤ 0.2"},
      {"variant": "VDYR", "one-hybrid fitness for binding parS DNA": "≤ 0.2"},
      {"variant": "VMNN", "one-hybrid fitness for binding parS DNA": "≤ 0.2"},
      {"variant": "TSAM", "one-hybrid fitness for binding parS DNA": "≤ 0.2"},
      {"variant": "DYAI", "one-hybrid fitness for binding parS DNA": "≤ 0.2"},
      {"variant": "VVYP", "one-hybrid fitness for binding parS DNA": "≤ 0.2"},
      {"variant": "YCDS", "one-hybrid fitness for binding parS DNA": "≤ 0.2"},
      {"variant": "RQAF", "one-hybrid fitness for binding parS DNA": 0.25},
      {"variant": "RPPS", "one-hybrid fitness for binding parS DNA": "≤ 0.2"},
      {"variant": "SRKL", "one-hybrid fitness for binding parS DNA": "≤ 0.2"},
      {"variant": "QQIM", "one-hybrid fitness for binding parS DNA": "≤ 0.2"},
      {"variant": "NHCT", "one-hybrid fitness for binding parS DNA": "≤ 0.2"},
      {"variant": "SSQY", "one-hybrid fitness for binding parS DNA": "≤ 0.2"},
      {"variant": "EKPC", "one-hybrid fitness for binding parS DNA": "≤ 0.2"},
      {"variant": "WCSN", "one-hybrid fitness for binding parS DNA": "≤ 0.2"},
      {"variant": "CWPD", "one-hybrid fitness for binding parS DNA": "≤ 0.2"},
      {"variant": "HHLV", "one-hybrid fitness for binding parS DNA": "≤ 0.2"},
      {"variant": "GGDC", "one-hybrid fitness for binding parS DNA": "≤ 0.2"},
      {"variant": "QHHC", "one-hybrid fitness for binding parS DNA": "≤ 0.2"},
      {"variant": "GQLS", "one-hybrid fitness for binding parS DNA": "≤ 0.2"},
      {"variant": "RFCG", "one-hybrid fitness for binding parS DNA": 0.895},
      {"variant": "EEQS", "one-hybrid fitness for binding parS DNA": "≤ 0.2"},
      {"variant": "SYCR", "one-hybrid fitness for binding parS DNA": "≤ 0.2"},
      {"variant": "FATS", "one-hybrid fitness for binding parS DNA": "≤ 0.2"},
      {"variant": "TSAT", "one-hybrid fitness for binding parS DNA": "≤ 0.2"},
      {"variant": "KSTW", "one-hybrid fitness for binding parS DNA": "≤ 0.2"},
      {"variant": "DLNC", "one-hybrid fitness for binding parS DNA": "≤ 0.2"},
      {"variant": "FDDR", "one-hybrid fitness for binding parS DNA": "≤ 0.2"},
      {"variant": "MAMF", "one-hybrid fitness for binding parS DNA": "≤ 0.2"},
      {"variant": "TAMR", "one-hybrid fitness for binding parS DNA": "≤ 0.2"},
      {"variant": "TLDT", "one-hybrid fitness for binding parS DNA": "≤ 0.2"},
      {"variant": "LNCT", "one-hybrid fitness for binding parS DNA": "≤ 0.2"},
      {"variant": "SPCR", "one-hybrid fitness for binding parS DNA": "≤ 0.2"},
      {"variant": "INTC", "one-hybrid fitness for binding parS DNA": "≤ 0.2"},
      {"variant": "RWTQ", "one-hybrid fitness for binding parS DNA": "≤ 0.2"},
      {"variant": "HCVL", "one-hybrid fitness for binding parS DNA": "≤ 0.2"},
      {"variant": "EMQM", "one-hybrid fitness for binding parS DNA": "≤ 0.2"},
      {"variant": "PHCM", "one-hybrid fitness for binding parS DNA": "≤ 0.2"},
      {"variant": "ISAH", "one-hybrid fitness for binding parS DNA": "≤ 0.2"}
    ]}
  ]
}
